In PubChem BioAssay AID1460 (National Center for Advancing Translational Sciences (NCATS), 2008):
Several values for one entry are separate records, joined by “and”; a condition that tells them apart may be missing. Identical values can stand only once. Hit rate of the full screen: of about 270,000 compounds, about 5,800 (2.1%) were called active. The inconclusive results got no clear call from the source; some entries with a clear call stand among them for comparison. Calls come from the whole dose curve; as a rule, active = well fitted inhibition curve with a large enough effect; inconclusive = small, poorly fitted or top-dose-only effect; inactive = flat fitted curve, though single readings scatter. A potency beside an inconclusive call is a rough fit, not a confirmed value.
% is set by controls: 0 for no effect and ±100 for the full control effect; potency is the fitted concentration of half-maximal effect; tags give direction and shape of the fitted curve.
Note: nearly all actives have a fitted effect of over 55% in size.

The molecules below were run against Microtubule-associated protein tau (Homo sapiens) (UniProt P10636) (assay: qHTS for Inhibitors of Tau Fibril Formation, Thioflavin T Binding). Conditions: recombinant tau K18 P301L (four-repeat tau fragment), heparin-induced fibrillization, ThT fluorescence; series mostly up to 57.4 µM; activity, negative = inhibition: at the top concentration.
Sequence of UniProt P10636 (P10636 whole entry, looked up, the tested form may be a part): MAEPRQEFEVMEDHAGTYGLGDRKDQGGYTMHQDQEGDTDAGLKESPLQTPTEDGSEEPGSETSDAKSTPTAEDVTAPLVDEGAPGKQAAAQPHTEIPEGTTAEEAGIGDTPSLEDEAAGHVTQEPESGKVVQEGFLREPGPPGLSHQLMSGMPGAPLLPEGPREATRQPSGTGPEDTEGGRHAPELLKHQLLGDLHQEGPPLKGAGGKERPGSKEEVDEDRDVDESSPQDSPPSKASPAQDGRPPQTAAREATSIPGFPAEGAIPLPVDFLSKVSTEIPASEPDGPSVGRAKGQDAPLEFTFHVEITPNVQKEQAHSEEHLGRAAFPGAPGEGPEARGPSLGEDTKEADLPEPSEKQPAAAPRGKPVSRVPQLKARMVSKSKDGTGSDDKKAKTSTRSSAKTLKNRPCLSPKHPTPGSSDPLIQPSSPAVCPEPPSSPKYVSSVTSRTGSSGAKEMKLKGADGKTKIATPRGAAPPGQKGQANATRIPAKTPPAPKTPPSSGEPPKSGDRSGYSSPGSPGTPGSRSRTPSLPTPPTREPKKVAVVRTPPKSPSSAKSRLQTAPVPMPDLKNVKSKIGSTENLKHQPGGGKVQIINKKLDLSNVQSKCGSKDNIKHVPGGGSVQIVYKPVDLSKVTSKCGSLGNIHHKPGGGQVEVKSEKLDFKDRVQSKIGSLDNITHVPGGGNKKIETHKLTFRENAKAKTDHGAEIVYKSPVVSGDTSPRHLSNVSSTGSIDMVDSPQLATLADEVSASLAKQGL
Procedure, shortened: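 Aggregation was driven by heparin (20 uM final) acting on recombinant tau […] bearing P301L in 100 mM sodium acetate pH 7; fibrils were detected with Thioflavin T.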
`Cc1cccc(CNc2ncc(-c3cccc([N+](=O)[O-])c3)n2C)c1` was tested, and the Potency was inconclusive: 20 µM [inhibitor, partial curve]. `CCOC(=O)c1sc2nc(CSc3nc4ccccc4n3CC)[nH]c(=O)c2c1C` was tested, and the Potency was inconclusive: 2.51 µM [inhibitor, single point]. In the case of `Cc1c(CCC(=O)NCCc2ccccc2)c(=O)oc2cc(O)ccc12`, the Potency is reported as inconclusive: 11.2 µM [inhibitor, partial curve]. For `O=C1OC(c2cccc([N+](=O)[O-])c2)C2(CCCC2)C(=O)C12CCCCC2` (stereo unspecified), the “activity, negative = inhibition” value was inactive: 13.1%. With `COc1ccc2c(c1)c1c(c(=O)n(-c3ccc(F)c(Cl)c3)c(=O)n1Cc1cccc(C)c1)n2C` the “activity, negative = inhibition” value was inactive: 13.2%. In the case of `O=C1/C(=C/c2cccnc2)Oc2cc(OS(=O)(=O)c3ccc(Cl)cc3)ccc21`, the “activity, negative = inhibition” value is reported as inactive: 14%. In the case of `N#C/C(=C\c1ccc(-c2cccc([N+](=O)[O-])c2)o1)c1nnc(N2CCOCC2)n1-c1ccccc1`, the Potency is reported as inconclusive: 7.08 µM [inhibitor, partial curve]. In the case of `CC(C)c1ccc(OCC(=O)Nc2c(Cl)ccc3nsnc23)cc1`, the “activity, negative = inhibition” value is reported as inactive: -6.73%. With `COC(=O)c1cc(COc2ccc3c4c(c(=O)oc3c2)CCCC4)c(C)o1` the Potency was inconclusive: 1.78 µM [inhibitor, full curve]. `CCC/C(C)=N\Nc1nc2c(c(=O)n(C)c(=O)n2C)n1C` was tested, and the Potency was inconclusive: 11.2 µM [inhibitor, partial curve]. In the case of `CC(Cl)C(=O)Nc1cc(C(F)(F)F)ccc1N1CCOCC1` (stereo unspecified), the “activity, negative = inhibition” value is reported as inactive: -0.578%. In the case of `CN(c1ccccc1)S(=O)(=O)c1cccc(NC(=O)CN2CCc3ccccc3C2)c1`, the “activity, negative = inhibition” value is reported as inactive: -11.7%. With `Nc1nc2c(c(=O)[nH]1)C(c1ccccc1)C1=C(N2)c2ccccc2C1=O` (stereo unspecified) the Potency was active: 6.31 µM. In the case of `C=CCn1c(C)cc(C(=O)CSc2nc3ccccc3o2)c1C`, the Potency is reported as inconclusive: 17.8 µM [inhibitor, partial curve, poor fit]. `CC(=O)N1CCCc2cc(S(=O)(=O)N(C)CC(=O)Nc3ccc(C)cc3C)ccc21` was tested, and the “activity, negative = inhibition” value was inactive: -0.845%. With `CCN1C/C(=C\c2cccc([N+](=O)[O-])c2)C(=O)/C(=C/c2cccc([N+](=O)[O-])c2)C1` the Potency was inconclusive: 7.08 µM [inhibitor, full curve]. In the case of `Cc1cc(C(=O)OCC(=O)Nc2cc(C(F)(F)F)ccc2N2CCOCC2)c(C)o1`, the “activity, negative = inhibition” value is reported as inactive: -12%. With `COc1cccc(N/C(C)=C/C(=O)c2ccc(Br)cc2)c1` the Potency was inconclusive: 12.6 µM [inhibitor, partial curve]. For `CN1CCN(c2ccccc2NC(=O)c2ccc([N+](=O)[O-])cc2Cl)CC1`, the Potency was inconclusive: 14.1 µM [inhibitor, partial curve]. For `Cc1noc(Cn2c(=O)c3ccccc3n(CC(=O)Nc3cccc(Cl)c3C)c2=O)n1`, the “activity, negative = inhibition” value was inactive: 17.3%. In the case of `CCCCN1CC[C@@H]2C=CC[C@H](C(=O)OC)[C@@H]2C1=O`, the “activity, negative = inhibition” value is reported as inactive: -10.2% [at 81.4 µM]. In the case of `COc1cc(SC#N)ccc1N=Cc1c(C)[nH]n(-c2cccc3ccccc23)c1=O`, the Potency is reported as active: 7.94 µM. `CCCCCC(O)(CCN1CCCCC1)c1ccc(OCC)cc1` (stereo unspecified) was tested, and the “activity, negative = inhibition” value was inactive: -19.3%. In the case of `Cc1ccc2nc(SCC(=O)Nc3ccc(C(N)=O)cc3)[nH]c2c1`, the Potency is reported as inconclusive: 14.1 µM [inhibitor, partial curve]. For `O=C(Oc1ccccc1/C=C\C(=O)c1cc2ccccc2o1)c1cccc(F)c1`, the Potency was inconclusive: 25.1 µM [inhibitor, partial curve]. For `CCCCC/C=N/NC(=O)c1[nH]c2ccc([N+](=O)[O-])cc2c1C`, the Potency was inconclusive: 31.6 µM [inhibitor, partial curve]. For `Cc1ccc(Sc2c(C)nn(C(=O)COc3ccc(F)cc3)c2C)cc1`, the Potency was inconclusive: 1 µM [inhibitor, full curve, poor fit]. `C/C(N)=C(/C#N)C(=O)CSc1nc2ccccc2c(=O)n1Cc1ccc(F)cc1` was tested, and the “activity, negative = inhibition” value was inactive: -14.9%. `Cc1cccc(NS(=O)(=O)c2cccc3cccnc23)n1` was tested, and the Potency was inconclusive: 2.51 µM [inhibitor, partial curve, poor fit]. For `COc1ccc(CC(=O)NC(C)c2nnc(SCC(=O)c3ccc(Br)cc3)n2C)cc1` (stereo unspecified), the Potency was inconclusive: 35.5 µM [inhibitor, partial curve]. For `COc1ccc(-n2c(=O)c3c4c(sc3n(Cc3cc(C)ccc3C)c2=O)CN(C(C)=O)CC4)c(OC)c1`, the Potency was inconclusive: 5.01 µM [inhibitor, partial curve]. With `Cc1cc(F)ccc1NCc1cc2c(cc1[N+](=O)[O-])OCO2` the Potency was inconclusive: 31.6 µM [inhibitor, partial curve]. With `CCCN1C(=O)/C(=C/c2c(NCCCOC(C)C)nc3c(C)cccn3c2=O)SC1=S` the Potency was inconclusive: 1.78 µM [inhibitor, full curve, poor fit]. `Cc1ccccc1-n1cc(-c2ccccc2)nc1SCC(=O)Nc1ccc(F)cc1` was tested, and the “activity, negative = inhibition” value was inactive: -10.5%. In the case of `CC1=C(CC(=O)O)c2cc(F)ccc2/C1=C\c1ccc(S(C)=O)cc1` (stereo unspecified), the Potency is reported as inconclusive: 28.2 µM [inhibitor, partial curve, poor fit] and inconclusive: 31.6 µM [inhibitor, single point]. In the case of `O=C(Nc1cccc(NC(=O)c2ccc(Br)o2)c1)c1ccccc1`, the Potency is reported as inconclusive: 39.8 µM [inhibitor, single point]. With `Cc1c(C(=O)NN)nn(-c2ccc(Cl)cc2)c(=O)c1C#N` the Potency was inconclusive: 17.8 µM [inhibitor, partial curve]. In the case of `CS(=O)(=O)n1nc(OC(=O)c2cc(Br)ccc2Cl)cc1N`, the Potency is reported as inconclusive: 10 µM [inhibitor, partial curve]. In the case of `COc1ccc(/C=C/C(=O)c2ccccc2)cc1Cn1nnc2ccccc21`, the Potency is reported as inconclusive: 31.6 µM [inhibitor, single point]. In the case of `O=C1CC(Sc2cccs2)C(=O)N1c1ccccc1` (stereo unspecified), the Potency is reported as inconclusive: 12.6 µM [inhibitor, partial curve]. With `O=[N+]([O-])c1cccnc1NCCc1ccccc1` the Potency was inconclusive: 11.2 µM [inhibitor, partial curve, poor fit]. For `COc1ccc(CCNC(=O)CCCn2c(=O)c3ccccc3n(Cc3ccc(F)cc3Cl)c2=O)cc1OC`, the “activity, negative = inhibition” value was inactive: -15.2%. With `Cc1cccc(C(=O)N2CCN(c3ccc([N+](=O)[O-])c(N4CCOCC4)c3)CC2)c1` the Potency was inconclusive: 25.1 µM [inhibitor, partial curve]. With `CCOc1ccccc1Nc1nnc(SCc2nnc(-c3cc(OC)c(OC)c(OC)c3)o2)s1` the Potency was inconclusive: 15.8 µM [inhibitor, single point]. In the case of `Cc1cc2oc(=O)c(CC(=O)O)c(C)c2c2occ(-c3ccc(F)cc3)c12`, the Potency is reported as inconclusive: 25.1 µM [inhibitor, partial curve]. In the case of `COc1ccc(CNC(=O)c2c(C)oc3c2C(=O)c2ccccc2C3=O)cc1`, the Potency is reported as inconclusive: 3.98 µM [inhibitor, full curve, poor fit]. With `Cc1ccc2c(c1)c1nnc(SCC(=O)N3CCN(c4ccc(F)cc4)CC3)nc1n2CC(=O)O` the Potency was inconclusive: 39.8 µM [inhibitor, single point]. In the case of `COC(=O)c1ccc(C2C(C(=O)c3cc4ccccc4o3)=C(O)C(=O)N2CCCN(C)C)cc1` (stereo unspecified), the Potency is reported as inconclusive: 20 µM [inhibitor, partial curve]. In the case of `O=S(=O)(c1ccccc1)c1cc(O)ccc1O`, the “activity, negative = inhibition” value is reported as inactive: -8.43%. In the case of `CCCCc1nnc(NC(=O)CSc2nc(O)c(Cc3ccccc3)c(=O)[nH]2)s1`, the Potency is reported as inconclusive: 25.1 µM [inhibitor, partial curve]. In the case of `Cc1cccc(CNC(=O)C2CCN(c3nnc(-n4c(C)ccc4C)s3)CC2)c1`, the Potency is reported as inconclusive: 35.5 µM [inhibitor, single point]. With `CO/N=C/C(=N\Nc1ccccc1)C(=O)c1ccccc1` the Potency was inconclusive: 7.08 µM [inhibitor, partial curve]. For `Cc1cccc(N2CCN(C(=O)COc3cc(=O)n(C)c4ccccc34)CC2)c1C`, the Potency was inconclusive: 14.1 µM [inhibitor, partial curve]. With `O=C(c1nn(Cc2ccccc2)c(=O)c2ccccc12)N1CCc2ccccc2C1` the “activity, negative = inhibition” value was inactive: -11.2%. With `CC1CCCN(Cc2cn3c(-c4cccc(Br)c4)nnc3s2)C1` (stereo unspecified) the “activity, negative = inhibition” value was inactive: -15.8%. For `CCOc1ccc(C(=O)NCCc2sc3nc(-c4ccc(Cl)cc4)nn3c2C)cc1OCC`, the “activity, negative = inhibition” value was inactive: -11.5%. For `COc1ccc2nc(/N=C(\N)NC(=O)C(C)(C)C)nc(C)c2c1`, the Potency was inconclusive: 7.94 µM [inhibitor, partial curve]. With `COCCCn1c(=S)[nH]c2sc3c(c2c1=O)CCCS3` the Potency was inconclusive: 25.1 µM [inhibitor, partial curve]. With `COc1ccc(/C=N/NC(=O)c2cccnc2)cc1COc1ccc([N+](=O)[O-])c(C)c1` the “activity, negative = inhibition” value was inactive: -18.2%. In the case of `CC(C)COC(=O)/C(C#N)=C/c1c[nH]c2ccccc12`, the Potency is reported as inconclusive: 39.8 µM [activator, single point]. For `Cc1ccc(-n2ncc(C(=O)NCCCN3CCN(c4cccc(Cl)c4)CC3)c2-n2cccc2)cc1`, the Potency was inconclusive: 17.8 µM [inhibitor, partial curve]. `Cc1ccc(NC(=O)COc2ccc(/C=N/NC(=O)CSCc3ccccc3)cc2)cc1` was tested, and the Potency was inconclusive: 1.58 µM [inhibitor, full curve]. `c1csc(C2=NC(c3ccncc3)=Nc3ccccc3N2)c1` was tested, and the Potency was inconclusive: 12.6 µM [inhibitor, partial curve, poor fit]. `COc1cc(S(=O)(=O)N2CCN(C)CC2)c(OC)cc1Cl` was tested, and the “activity, negative = inhibition” value was inactive: -15%. `COc1cccc(/C(O)=C2/C(=O)C(=O)N(Cc3ccco3)C2c2ccncc2)c1` (stereo unspecified) was tested, and the Potency was inconclusive: 17.8 µM [inhibitor, single point]. For `COc1ccc(OCCCC(=O)N2CCCc3ccccc32)cc1`, the Potency was inconclusive: 31.6 µM [inhibitor, single point].
